About 340 (0.77%) of roughly 44,000 compounds were called active. About 5% were inconclusive and are not listed. Calls come from the whole dose curve; as a rule, active = well fitted inhibition curve with a large enough effect; inconclusive = small, poorly fitted or top-dose-only effect; inactive = flat fitted curve, though single readings scatter. This is one part of the list.
Test: Acumen qHTS Assay for Inhibitors of the mTORC1 Signaling Pathway in MEF (Tsc2-/-, p53-/-) Cells: Sytravon; note: nearly all actives have a fitted effect of over 50% in size;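 for activity change, negative = inhibition: plate controls were DMSO for no effect and rapamycin for full effect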
Conditions: phospho-rpS6 immunofluorescence/PI, 24 h; series mostly up to 38.3 µM; activity change, negative = inhibition: at the top concentration
Summary of the method: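 Immunofluorescence of rpS6 phosphorylation in Tsc2-/-, p53-/- MEFs after 24 h compound exposure, normalized to propidium iodide signal. Activity is expressed as % positive cells, thresholded with 7.5 nM rapamycin.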
Potency is the fitted concentration of half-maximal effect.

| Structure (SMILES) | activity change, negative = inhibition | Potency |
| --- | --- | --- |
| Cc1c(-c2ccccc2)n(-c2ccccc2O)c2nc3c(c(=O)n(C)c(=O)n3C)n12 | inactive: -1.29% | – |
| O=C(c1ccc2c(c1)N(Cc1ccccc1)C(=O)c1ccccc1S2=O)N1CCC(Cc2ccccc2)CC1 (stereo unspecified) | inactive: -18.8% | – |
| Cc1ccc2c(c1)c(=O)c(S(=O)(=O)c1ccc(C)c(C)c1)cn2CC(=O)Nc1ccccc1 | inactive: -4.47% | – |
| CCCOc1ccc(C2=NC(c3ccc(F)cc3)=Nc3ccc(OC)cc3N2)cc1 | inactive: 0.841% | – |
| CCc1cccc(C)c1NC(=O)C1=C(C)C(=O)OC12CCC(C)CC2 (stereo unspecified) | inactive: -5% | – |
| COc1ccccc1Nc1ncc(C(=O)Nc2ccc(OC)c(OC)c2)c2ccccc12 | inactive: -10.8% | – |
| COc1ccccc1CNC(=O)c1cnc2sc(N3CCOCC3)nn2c1=O | inactive: 2.1% | – |
| COc1ccc(N2CCN(C(=O)Cn3nc(Cc4cccnc4)c4ccccc4c3=O)CC2)cc1 | inactive: -11.4% | – |
| Cc1ccc(Nc2ncnc3c2nc2n3CCCC2)c(Br)c1 | inactive: -1.41% | – |
| COc1ccc(NC(=O)NCC2CCN(Cc3ccccc3F)CC2)c(OC)c1 | inactive: -0.629% | – |
| COc1ccc2nc(N(Cc3cccnc3)C(=O)COc3ccccc3)sc2c1 | inactive: 0.0053% | – |
| COC(=O)c1cc(S(=O)(=O)N2CCN(c3ccc(F)cc3)CC2)cn1C | inactive: 0% | – |
| COc1ccccc1CNC(=O)c1ccc2c(c1)CCN2S(=O)(=O)c1ccc(Cl)cc1 | inactive: -2.13% | – |
| Cn1cc(C(=O)NCCc2ccc(Cl)cc2)c(=O)c2cc(S(=O)(=O)N3CCCCC3)ccc21 | inactive: 2.93% | – |
| COC(=O)c1ccc(Cn2nnc3c(=O)[nH]c(C4CCCN(S(=O)(=O)c5ccccc5)C4)nc32)cc1 (stereo unspecified) | inactive: -4.88% | – |
| CCCC(CCC)C(=O)Nc1cccc(-c2nc3cccnc3s2)c1 | inactive: -0.611% | – |
| CCc1ccccc1NC(=O)N1CCC2(CC1)Oc1ccccc1C(=O)N2Cc1ccccc1F | inactive: -18.4% | – |
| COc1ccc(CCN2C(=O)N(c3ccc(F)cc3)C(=O)C2CC(=O)Nc2ccc(OC)cc2)cc1 (stereo unspecified) | inactive: -4.94% | – |
| CCOc1ccc(C(=O)NCC(c2ccc3c(c2)OCO3)N2CCN(c3ccc(F)cc3)CC2)cc1 (stereo unspecified) | inactive: 1.87% | – |
| CC(=O)Nc1ccc(NS(=O)(=O)c2ccc3[nH]c4c(c3c2)CCCCC4)cc1 | inactive: 5.05% | – |
| Cc1ccc(CN2CCN(C3CCN(C(=O)c4ccc(C)cc4)CC3)C(=O)C2=O)cc1 | inactive: -6.73% | – |

| Structure (SMILES) | activity change, negative = inhibition | Potency |
| --- | --- | --- |
| CC1CCN(Cc2c(O)ccc3c(=O)c(-c4ccc(Cl)cc4)c(C(F)(F)F)oc23)CC1 | inactive: 1.93% | – |
| CC(C)(C)c1cc(C(C)(C)C)c2oc(=O)c(-c3nc4ccc(C(=O)O)cc4[nH]3)cc2c1 | inactive: -2.4% | – |
| COc1cc(OC)c(NC(=O)N2CCN3CCCCC3C2)cc1Cl (stereo unspecified) | inactive: -2.5% | – |
| CCOC(=O)c1ccccc1NC(=O)CSc1cc(C)[nH]c(=O)n1 | inactive: 0.0149% | – |
| COc1ccc(Cl)cc1NC(=O)CCN1C(=O)c2ccccc2Sc2ncccc21 | inactive: -7.13% | – |
| CC(=O)N1CCc2cc(S(=O)(=O)NC(CC(C)C)C(=O)NCCc3ccccc3)ccc21 (stereo unspecified) | inactive: 5.82% | – |
| CC(C)C(=O)N1c2nc(C(C)C)nn2C2(CCCCC2)[C@@H]2CCCC[C@@H]21 | inactive: -6.38% | – |
| Cc1ccc(Nc2nc3ccccc3c3nnc(C)n23)cc1Cl | inactive: 2.68% | – |
| Cc1cc(C)c2c(=O)cc(CSc3nnc(-c4ccccc4)n3C)[nH]c2c1 | inactive: -13.5% | – |
| COc1cc(-c2nnc(SCC(=O)Oc3ccccc3)o2)cc(OC)c1OC | inactive: 1.06% | – |
| COc1ccc(OC)c(Nc2ncc3c(n2)CCN(Cc2cc(OC)c(OC)c(OC)c2)C3)c1 | inactive: 0% | – |
| CCc1ccccc1Nc1ncnc2c1cnn2-c1ccc(Cl)cc1 | inactive: -0.155% | – |
| CSCCC(NS(=O)(=O)c1cccs1)C(=O)Nc1ccc(C)c(Cl)c1 (stereo unspecified) | inactive: -2.37% | – |
| CCOc1ccc(CCNC(=O)c2ccc(CS(=O)(=O)c3ccccc3C)o2)cc1OCC | inactive: -7.07% | – |
| CC(=O)c1ccc(NC(=O)CSc2nnc(NC(=O)Nc3ccccc3)s2)cc1 | inactive: 3.1% | – |
| COc1ccc(Cl)cc1NC(=O)c1ncn(-c2ccccc2)n1 | inactive: -18.7% | – |
| COc1ccc(OC)c(NC(=O)Cc2c(C)n(C(=O)c3ccc(Cl)cc3)c3ccc(OC)cc23)c1 | inactive: -1.45% | – |
| CC(=O)c1cccc(NC(=O)CN2C(=O)c3cccnc3Sc3ccccc32)c1 | inactive: 10.9% | – |
| Cc1ccc(C)c(Cn2c(=O)n(Cc3ccco3)c(=O)c3oc4ccccc4c32)c1 | inactive: -5.04% | – |
| CCc1ccccc1NC(=O)c1sc2nc3n(c(=O)c2c1C)CCC3 | inactive: -19.6% | – |
| COc1cc(CN(C(=O)c2ccc(OC(C)C)cc2)C2CCS(=O)(=O)C2)cc(OC)c1OC (stereo unspecified) | inactive: 2.08% | – |

| Structure (SMILES) | activity change, negative = inhibition | Potency |
| --- | --- | --- |
| Cc1ccccc1OCc1ccc(-c2nc(C#N)c(N3CCN(c4ccccc4)CC3)o2)o1 | inactive: -1.07% | – |
| O=C(NCCCc1nc2ccccc2n1Cc1ccccc1)C1CCCCC1 | inactive: 3.56% | – |
| CCOc1ccc(CNC(=O)c2ccc(NC(=O)N3CCSc4ncccc43)cc2)cc1OC | inactive: -11.2% | – |
| COc1cccc(Cn2c(C)c(CNCc3ccccc3Cl)c(C(=O)O)c2C)c1 | inactive: -2.52% | – |
| CN(C)c1cc2c(cc1NC(=O)c1ccc(F)cc1)n(C)c(=O)n2C | inactive: -12.9% | – |
| CCc1ccc(-c2cc(C)no2)cc1S(=O)(=O)Nc1ccc(C)cn1 | inactive: 4.99% | – |
| Cc1cccc(-c2nnn3c2nc(NCc2ccccc2)c2ccccc23)c1 | inactive: -3.06% | – |
| CNC(=O)C1CCN(Cc2cc3ccccc3n2Cc2cccc(C)c2)CC1 | inactive: 2.4% | – |
| CC(C)CCNC(=O)C1CCN(S(=O)(=O)c2cccc3nsnc23)CC1 | inactive: -0.295% | – |
| O=C(C1CCC(Cn2c(=O)c3sccc3n(Cc3cccc(F)c3)c2=O)CC1)N1CCCCC1 (stereo unspecified) | inactive: -1.61% | – |
| O=C(NCCc1ccccc1)C(=O)NCC(c1cccnc1)N1CCN(c2ccccc2F)CC1 (stereo unspecified) | inactive: 3.55% | – |
| COc1ccccc1Nc1nn2c(=O)c3ccc(C(=O)NCc4ccc(F)cc4)cc3nc2s1 | inactive: -10.1% | – |
| COc1ccc(CCNC(=O)c2ccc(CS(=O)(=O)Cc3cccc(C)c3)o2)cc1OC | inactive: 5.39% | – |
| CCN1CCN(C(c2ccc(F)cc2)c2c(O)cc(C)n(CCOC)c2=O)CC1 (stereo unspecified) | inactive: 3.65% | – |
| CCc1cccc2c(-c3ccc(F)cc3)nc(SCC(=O)Nc3ccccc3)nc12 | inactive: -2.64% | – |
| COc1ccc(C(=O)Nc2ccc(-c3cc4ccccc4oc3=O)c(C)c2)cc1OC | inactive: -7.62% | – |
| CC(C)CCNC(=O)C1CCN(C(=O)N2CCOc3ccc(Cl)cc32)CC1 | inactive: 4.24% | – |
| COc1ccc(-c2n[nH]c3c2C(c2ccc(O)cc2)N(c2ccc(Br)cc2)C3=O)cc1 (stereo unspecified) | – | active: 14.7 µM |
| CSc1cccc(NC(=O)N2CCN(c3cc(-c4noc(C)n4)ccc3C)CC2)c1 | inactive: -12.2% | – |

From PubChem BioAssay AID493208 (National Center for Advancing Translational Sciences (NCATS), 2011)
